Measured values: article PMC4336329 (PLoS ONE, 2015)
Out of some 310,000 compounds screened, about 14,000 (4.5%) showed an effect of 50% or more. Effects have a minus sign here. Some of the results follow.

Each molecule was assayed against human ether-à-go-go-related gene (hERG) potassium channel (human, UniProt Q12809) (assay: primary screen, population patch clamp on CHO cells stably expressing hERG).
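Note: peak tail current of the secondary pulse compared with the same well before compound.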

Chain of human ether-à-go-go-related gene (hERG) potassium channel (Q12809 whole entry, looked up): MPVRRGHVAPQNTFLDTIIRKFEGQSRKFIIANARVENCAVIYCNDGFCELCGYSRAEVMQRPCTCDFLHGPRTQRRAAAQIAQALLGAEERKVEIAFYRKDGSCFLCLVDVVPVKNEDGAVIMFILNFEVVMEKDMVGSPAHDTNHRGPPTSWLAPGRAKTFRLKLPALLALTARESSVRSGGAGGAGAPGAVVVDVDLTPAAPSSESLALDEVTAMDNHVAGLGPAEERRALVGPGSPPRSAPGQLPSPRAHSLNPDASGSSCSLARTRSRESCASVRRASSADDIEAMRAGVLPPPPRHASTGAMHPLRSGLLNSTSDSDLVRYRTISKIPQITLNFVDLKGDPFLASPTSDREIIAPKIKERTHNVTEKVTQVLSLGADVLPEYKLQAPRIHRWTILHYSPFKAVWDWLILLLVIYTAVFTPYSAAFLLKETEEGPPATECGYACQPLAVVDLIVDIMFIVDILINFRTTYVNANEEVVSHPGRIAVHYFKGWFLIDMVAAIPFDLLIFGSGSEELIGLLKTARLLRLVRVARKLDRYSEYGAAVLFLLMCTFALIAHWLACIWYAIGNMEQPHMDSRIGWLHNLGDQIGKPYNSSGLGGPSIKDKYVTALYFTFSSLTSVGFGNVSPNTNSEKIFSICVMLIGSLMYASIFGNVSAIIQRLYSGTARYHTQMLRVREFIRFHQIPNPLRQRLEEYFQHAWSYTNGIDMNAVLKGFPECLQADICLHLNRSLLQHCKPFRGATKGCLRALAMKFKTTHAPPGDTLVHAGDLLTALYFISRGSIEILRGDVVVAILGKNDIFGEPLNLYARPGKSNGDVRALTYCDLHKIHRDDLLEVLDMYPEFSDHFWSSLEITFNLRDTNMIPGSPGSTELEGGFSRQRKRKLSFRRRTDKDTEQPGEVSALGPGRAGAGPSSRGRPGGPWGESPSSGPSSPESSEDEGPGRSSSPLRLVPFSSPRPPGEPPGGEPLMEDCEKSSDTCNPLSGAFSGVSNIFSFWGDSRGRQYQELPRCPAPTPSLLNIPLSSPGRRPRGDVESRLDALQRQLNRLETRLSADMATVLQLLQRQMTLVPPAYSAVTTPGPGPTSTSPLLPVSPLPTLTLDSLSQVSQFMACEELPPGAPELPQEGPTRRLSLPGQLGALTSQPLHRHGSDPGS

Compound	hERG current change (%, negative = inhibition) at 10uM
CCOC(=O)n1cc(-c2cnc(CNC(=O)C(C)(c3ccccc3)c3ccccc3)o2)c2ccccc21	-21.8%
COc1ccc(O)c(CN2CCCC(C(=O)c3ccccc3SC)C2)c1 (centres unmarked)	-30.9%
Nc1ccc(CCn2ccnc2)cc1	33.9%
O=C(c1ccccc1)c1ccc2nc(N3CCCCC3)c3nncn3c2c1	0.75%
O=c1[nH]c(N2CCCCC2)nc2c1CCCC2	-4.35%
Cc1nc2ccccc2c2oc(C(=O)N3CCN(c4ccc([N+](=O)[O-])cc4)CC3)cc12	-9.45%
Cc1ccc(S(=O)(=O)N2CCCCC2)cc1NC(=O)COC(=O)c1cc[n+]([O-])cc1	-15.1%
CC(=O)c1c(C)[nH]c(C(=O)CSc2nnc(N)s2)c1C	17.3%
COCCNC(=O)c1ccc(N2CCC3(CC2)OCCO3)c([N+](=O)[O-])c1	12.4%
CCOC(=O)c1c(NC(=O)COC(=O)CNC(=O)c2ccc(Cl)cc2Cl)sc(C(=O)N(C)C)c1C	-45.7%
O=C(Nc1ccc(NC(=O)c2cccs2)cc1)c1ccc2c(c1)OCO2	3.29%
CCCCOc1ccc(C(=O)NCC(=O)NC(C)CCc2ccccc2)cc1 (centres unmarked)	-4.99%
Cc1ccc(-c2nc(N)n(C(=O)c3cccs3)n2)cc1	6.42%
CCc1cc2c(=O)[nH]c(COC)nc2s1	17.4%
Cc1[nH][nH]c(=O)c1C(c1cc(Br)ccc1O)c1c(C)[nH][nH]c1=O	12%
CCOCC(=O)Nc1cc(C(F)(F)F)ccc1Oc1cccc(Br)c1	-19.8%
C=CCNC(=O)c1cccc(OC2CCN(CC(C)(C)C)CC2)c1	13.3%
CCOC(=O)N1CCN(c2nc(-c3ccc(F)cc3)cs2)CC1	4.23%
COC(=O)c1ccccc1NC(=O)CSc1nc2cccnc2n1C	4.99%

Compound	hERG current change (%, negative = inhibition) at 10uM
CCOc1ccccc1N1Cc2ccccc2C1	9.16%
Cc1cc2cc3c(cc2nc1SCC(=O)N1CCOCC1)OCO3	2.58%
CCc1cc(-c2n[nH]c(C)c2-c2ccccc2Cl)c(O)cc1OC	16.8%
Cc1nnc(Cl)c2nn(-c3ccccc3F)c(C)c12	10.3%
CCn1c(SCC(=O)c2cc(OC)ccc2OC)nnc1C(C)C	0.936%
COc1cccc(CCC(=O)N2CCC(n3nccc3NC(=O)CC(C)C)CC2)c1	8.16%
COC(=O)C1=C(C)NC(C)=C(C(=O)O[C@@H]2CCCN(Cc3ccccc3)C2)[C@@H]1c1cccc([N+](=O)[O-])c1.Cl	9.68%
CCCCC[C@H](O)/C=C/[C@H]1[C@H](O)CC(=O)[C@@H]1CCCCCCC(=O)O	0.0793%
O=C(O)CCCNc1ccc(S(=O)(=O)N2CCCCC2)cc1	5.06%
CCNS(=O)(=O)c1ccc(CCC(=O)N2CCOCC2)cc1	25.2%
O=C(CSc1nnc(-c2cnccn2)n1Cc1ccco1)c1ccc(Cl)cc1	-22%
CCCC(=O)N(Cc1cc(=O)[nH]c2ccccc12)c1ccccc1	-8%
NC(=O)CSc1n[nH]c(=O)n1CCc1ccccc1	16.9%
COc1cccc(NC(=O)CSc2nnc(Cc3ccc(OC)c(OC)c3)o2)c1	9.8%
O=C(NCc1ccccn1)C1CCC(=O)N1C1CCCCC1 (centres unmarked)	1.07%
O=C(c1ccc(Cl)c(S(=O)(=O)N2CCOCC2)c1)N1CCN(c2ccccc2F)CC1	-15.1%
COC(C)(C)[C@]12CC(O)(c3ccccc3)ON1[C@H]1CCCCC1N2O (some centres unmarked)	0.176%
CN(C)S(=O)(=O)c1ccc(C(=O)NCc2nnc(SCC(=O)c3ccccc3)o2)cc1	2.59%
COCCn1c(N)c(N(Cc2ccccc2)C(=O)c2ccc3ccccc3c2)c(=O)[nH]c1=O	7.55%

Compound	hERG current change (%, negative = inhibition) at 10uM
O=C1/C(=C/c2cccc(Cl)c2)SC(=S)N1CCC(=O)N1CCCCC1CCO (centres unmarked)	19.1%
c1ccc(CSc2ccc(-c3ccccn3)nn2)cc1	13.5%
COCCn1c(SCc2ccccc2)nc2c1c(=O)[nH]c(=O)n2C	0.967%
C=CCn1c(COc2ccccc2F)nnc1SCC(=O)c1c[nH]c2ccccc12	-2.14%
S=C(Sc1ccc(Cl)cc1)Sc1ccc(Cl)cc1	16.4%
CN(C)CCCOc1ccc(C(C)(C)c2ccccc2)cc1.O=C(O)C(=O)O	-16.5%
COC(=O)c1ccc(-c2noc(CN(C)CCC3CCCCO3)n2)cc1 (centres unmarked)	3.22%
Cc1c(NC(=O)C(C)OC(=O)/C=C/c2ccco2)c(=O)n(-c2ccccc2)n1C (centres unmarked)	18.2%
COc1cc(NC(=O)CSc2nnc(-c3cc(C)on3)o2)cc(OC)c1	22%
C[C@]12CC[C@H]3C(=CCc4cc(O)ccc43)[C@@H]1CCC2=O	19.5%
CSc1ccc(/C=N/N2CCN(Cc3ccc(Cl)cc3)CC2)cc1	8.01%
O=C(Nc1cc([N+](=O)[O-])ccc1F)c1ccc2ccccc2c1	20.5%
Cc1ccccc1C(=O)NNC(=O)CSc1nnc(C)n1-c1ccccc1	18.6%
COc1ccc(N(CC(=O)NCC2CCCO2)C(=O)CCC(=O)Nc2cc(C)on2)cc1OC (centres unmarked)	15.5%
COc1cc(-c2cc(C(=O)Nc3ccc(S(N)(=O)=O)cc3)c3ccccc3n2)cc(OC)c1OC	29.2%
Cc1nn(C)cc1/C=C/C(=O)c1ccccc1	-6.77%
Cc1cc(-c2nn(-c3ccccc3F)cc2CN2CCN(c3ccccn3)CC2)c(C)s1	18.6%
Cc1ccccc1NC(=O)CCSc1nnnn1-c1ccccc1	-5.33%
